Data taken from PubChem BioAssay AID246 (DTP/NCI, 2004).
Inconclusive results and toxic doses are left out. Some entries of the source have several records that differ or are many. Only these are listed. The source may hold further records. Values that stand side by side repeat one measurement (runs, samples, wells, individuals or studies).

Test system: BDF1 mice, P1081 chloroleukemia ip, survival T/C
Experiment: NCI In Vivo Anticancer Drug Screen. Data for tumor model P1081 Chloroleukemia (intraperitoneal) in B6D2F1 (BDF1) mice
Settings: endpoint: mean survival time, higher = longer survival
Procedure: The antitumor activity of compounds was measured in mice bearing transplantable tumors. Survival or tumor size were measured and the results are expressed as the measurement made in the treated group (T) divided by the measurement made in the vehicle treated control group (C). The tumor model used in this assay is P1081 Chloroleukemia (intraperitoneal) in B6D2F1 (BDF1) mice

[1] = dose: 100.0 mg/kg/injection, schedule: Q01DX Z (ip), vehicle: carboxymethylcellulose (CMC)
[2] = dose: 50.0 mg/kg/injection, schedule: Q01DX Z (ip), vehicle: carboxymethylcellulose (CMC)

For `CCCSc1ncnc2nc[nH]c12`, the T/C [1] was 91 % of control and 166 % of control.

`C[N+](C)(C)c1ncnc2nc[nH]c12` was tested, and the T/C [2] was 108 % of control and 172 % of control.

For `Nc1nc(=S)c2ncn(C3OC(CO)C(O)C3O)c2[nH]1` (stereo unspecified), the T/C (dose: 2.0 mg/kg/injection, schedule: Q01DX010 (ip), vehicle: saline) was 100 % of control and 161 % of control and the T/C (dose: 4.0 mg/kg/injection, schedule: Q01DX010 (ip), vehicle: saline) was 90 % of control and 150 % of control.

`Cn1c(N)nc2nc[nH]c2c1=S` was tested, and the T/C (dose: 40.0 mg/kg/injection, schedule: Q01DX010 (ip), vehicle: saline) was 100 % of control and 180 % of control and the T/C (dose: 80.0 mg/kg/injection, schedule: Q01DX010 (ip), vehicle: saline) was 105 % of control and 200 % of control.

In the case of `N#[N+]c1cnc([O-])[nH]c1=O`, the T/C (dose: 2.5 mg/kg/injection, schedule: Q01DX010 (ip), vehicle: saline) was 122 % of control and 180 % of control.

For `CS(=O)(=O)OCCC(=O)N1CCN(C(=O)CCOS(C)(=O)=O)CC1`, the T/C (dose: 12.5 mg/kg/injection, schedule: Q01DX010 (ip), vehicle: saline) was 116 % of control and 165 % of control.

In the case of `CSc1ncnc2nc[nH]c12`, the T/C [2] was 96 % of control, 123 % of control, 158 % of control and the T/C [1] was 100 % of control, 111 % of control, 151 % of control.

`O=c1[nH]cc(F)c(=O)[nH]1` was tested, and the T/C (dose: 25.0 mg/kg/injection, schedule: Q01DX Z (ip), vehicle: saline) was 121 % of control and 159 % of control.

In the case of `CCOC(=O)NP(=O)(N1CC1(C)C)N1CC1(C)C` (stereo unspecified), the T/C (dose: 31.0 mg/kg/injection, schedule: Q01DX Z (ip), vehicle: carboxymethylcellulose (CMC)) was 99 % of control and 151 % of control.

In the case of `N#CCSc1ncnc2nc[nH]c12`, the T/C (dose: 25.0 mg/kg/injection, schedule: Q01DX Z (ip), vehicle: carboxymethylcellulose (CMC)) was 110 % of control and 150 % of control.

`CN(C)CC(=O)c1ccc(O)c(O)c1` was tested, and the T/C (dose: 250.0 mg/kg/injection, schedule: Q01DX Z (ip), vehicle: saline) was 111 % of control and 166 % of control and the T/C (dose: 500.0 mg/kg/injection, schedule: Q01DX Z (ip), vehicle: saline) was 113 % of control and 153 % of control.

For `Oc1cc(CN(CCCl)CCCl)c(O)cc1CN(CCCl)CCCl`, the T/C (dose: 1.88 mg/kg/injection, schedule: Q01DX Z (sc), vehicle: steriod suspending solution) was 105 % of control and 174 % of control.

In the case of `C=CC(CN1CC1)OC(C)=O` (stereo unspecified), the T/C (dose: 1.88 mg/kg/injection, schedule: Q01DX Z (ip), vehicle: carboxymethylcellulose (CMC)) was 114 % of control and 151 % of control.

With `O=C(Nc1ccc(C2=NCCN2)cc1)c1ccc(C(=O)Nc2ccc(C3=NCCN3)cc2)c(Cl)c1` the T/C (dose: 15.0 mg/kg/injection, schedule: Q01DX Z (ip), vehicle: water) was 94 % of control and 153 % of control and the T/C (dose: 30.0 mg/kg/injection, schedule: Q01DX Z (ip), vehicle: water) was 93 % of control and 200 % of control.

`CO[C@@H]1[C@@H](OC2OC(C)C(OC3CC(C)(O)C(OC(=O)CC(C)C)C(C)O3)C(N(C)C)C2O)[C@@H](CC=O)C[C@@H](C)C(=O)/C=C/C2O[C@H]2C[C@@H](C)OC(=O)C[C@H]1OC(C)=O` (stereo partly specified) was tested, and the T/C (dose: 75.0 mg/kg/injection, schedule: Q01DX010 (ip), vehicle: saline) was 105 % of control and 150 % of control.

With `[I][Hg][CH2]C1COC([CH2][Hg][I])CO1` (stereo unspecified) the T/C (dose: 30.0 mg/kg/injection, schedule: Q01DX Z (ip), vehicle: carboxymethylcellulose (CMC)) was 87 % of control, 98 % of control, 155 % of control.
